The whole screen tested about 350,000 compounds, of which about 31,000 (8.9%) were called active. Inconclusive results, whose numbers are uncertain, are shown with a selection of clear calls. Calls follow the shape of the dose curve; as a rule, active = well fitted inhibition curve with a large enough effect; inconclusive = small, poorly fitted or top-dose-only effect; inactive = no such curve, though single readings can be large or run the other way. Where the call is inconclusive, the potency comes from a doubtful curve fit.
Target: Histone-lysine N-methyltransferase EHMT2 (Homo sapiens) (UniProt Q96KQ7)
UniProt Q96KQ7, sequence (Q96KQ7 whole entry, looked up): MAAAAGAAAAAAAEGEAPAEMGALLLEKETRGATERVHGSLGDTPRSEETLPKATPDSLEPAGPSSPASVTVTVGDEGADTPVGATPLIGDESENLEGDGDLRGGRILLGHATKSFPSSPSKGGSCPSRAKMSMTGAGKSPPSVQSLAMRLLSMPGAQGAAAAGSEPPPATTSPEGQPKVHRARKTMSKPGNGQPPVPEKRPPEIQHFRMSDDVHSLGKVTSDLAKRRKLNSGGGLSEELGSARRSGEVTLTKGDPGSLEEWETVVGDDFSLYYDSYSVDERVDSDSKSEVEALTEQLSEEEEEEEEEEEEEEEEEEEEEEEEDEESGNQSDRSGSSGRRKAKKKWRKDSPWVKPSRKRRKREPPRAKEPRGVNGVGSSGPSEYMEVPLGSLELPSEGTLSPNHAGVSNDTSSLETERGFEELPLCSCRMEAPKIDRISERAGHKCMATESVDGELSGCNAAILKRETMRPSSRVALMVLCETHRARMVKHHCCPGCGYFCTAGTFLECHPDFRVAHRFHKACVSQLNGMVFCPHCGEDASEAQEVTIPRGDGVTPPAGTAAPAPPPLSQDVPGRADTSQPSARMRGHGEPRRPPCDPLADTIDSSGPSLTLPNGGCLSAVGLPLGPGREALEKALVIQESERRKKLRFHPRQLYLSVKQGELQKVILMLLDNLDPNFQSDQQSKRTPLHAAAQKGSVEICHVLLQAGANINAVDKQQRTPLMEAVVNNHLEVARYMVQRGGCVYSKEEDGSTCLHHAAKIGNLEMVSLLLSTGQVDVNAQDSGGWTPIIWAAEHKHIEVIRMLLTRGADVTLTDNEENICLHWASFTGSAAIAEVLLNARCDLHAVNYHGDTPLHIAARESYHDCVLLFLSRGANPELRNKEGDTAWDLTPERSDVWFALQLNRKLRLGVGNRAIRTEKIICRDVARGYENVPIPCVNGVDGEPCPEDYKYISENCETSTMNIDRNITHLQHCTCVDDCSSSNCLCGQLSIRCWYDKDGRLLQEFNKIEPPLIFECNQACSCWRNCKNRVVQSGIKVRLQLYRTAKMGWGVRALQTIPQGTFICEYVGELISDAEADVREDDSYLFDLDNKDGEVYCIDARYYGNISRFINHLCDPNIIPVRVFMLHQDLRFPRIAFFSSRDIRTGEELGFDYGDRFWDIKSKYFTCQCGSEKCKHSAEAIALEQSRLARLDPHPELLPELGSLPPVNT
Test: qHTS Assay for Inhibitors of Histone Lysine Methyltransferase G9a; also: nearly all actives have a fitted effect of over 75% in size
Settings: G9a H3K9 monomethylation, AlphaScreen, 2 h; activity, negative = inhibition: at 59 µM (top of the series) unless noted
Procedure, shortened: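 G9a (20 nM) was preincubated 15 min with compound, then reacted 2 h at room temperature with 500 nM biotin-H3K9 peptide and 20 µM SAM. Monomethyl-H3K9 detected by AlphaScreen using anti-H3K9me1 antibody.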
% is scaled to controls: 0 for no effect and ±100 for the full control effect; potency is read from the fitted curve at half-maximal effect; tags tell the direction and shape of the fitted curve.

Row | SMILES | Potency | activity, negative = inhibition
1 | Nc1nn(-c2ccccc2)c(N)c1N=Nc1ccccc1 | inconclusive: 89.1 µM [inhibitor, single point] | 
2 | Cc1ccc(S(=O)(=O)N2CCOCC2)cc1NC(=O)CN1CCC(Cc2ccccc2)CC1 | active: 7.94 µM | 
3 | CC[N+](CC)(CC#Cc1ccccc1)CC(=O)c1ccc(Cl)cc1 | active: 7.08 µM | 
4 | CC/C(=C1/C(=O)CC(C)(C)C(C(=O)OC)C1=O)N1CCCC1 (centres undefined) | inconclusive: 50.1 µM [inhibitor, partial curve] | 
5 | COC(=O)c1ccccc1NC(=S)NC(=O)COc1ccccc1 |  | inconclusive: -70.8% [inhibitor]
6 | Oc1ccc2ccc3[nH]cnc3c2c1 | inconclusive: 79.4 µM [inhibitor, single point] | 
7 | O=C1NCCN(Cc2ccc(F)cc2)C1CC(=O)N1CC=C(c2ccccc2)CC1 (centres undefined) |  | inconclusive: -83.6% [inhibitor]
8 | CC(C)CN(C(=O)COC(=O)Cc1c[nH]c2ccccc12)C1CCS(=O)(=O)C1 (centres undefined) | inactive | 
9 | CCCC1=[N+](CC(=O)c2ccccc2)CCn2c(C)ccc21 | inconclusive: 79.4 µM [inhibitor, single point] | 
10 | O=C(c1ccc([N+](=O)[O-])cc1)n1nc(-c2ccccc2)nc1NCc1ccc(F)cc1 | inconclusive: 28.2 µM [inhibitor, single point] | 
11 | Cc1[nH]c(=O)nc(SCc2ccc(Cl)c(Cl)c2)c1C#N | inconclusive: 79.4 µM [inhibitor, single point] | 
12 | CCNC(=O)c1ccc(CSc2nc3ccccc3s2)cc1 | inconclusive: 22.4 µM [inhibitor, partial curve, poor fit] | 
13 | COc1ccc(CCN2CCC(CNC(=O)c3cnn(-c4ccc(C)cc4)c3C3CCN(C(=O)OC(C)(C)C)CC3)CC2)cc1 | inactive | 
14 | O=C(CNC(=O)c1ccccc1C(=O)O)c1ccccc1 | active: 20 µM | 
15 | CC(=O)Nc1ccc(S(=O)(=O)NCc2ccc3[nH]c(C)cc3c2)cc1 | inactive | 
16 | O=C(Nc1ccc2cccnc2c1)c1ccc(Br)cc1 |  | inactive: 23.3% [at 0.501 µM]
17 | O=C(Cc1ccc(Cl)cc1)Nc1ncc([N+](=O)[O-])s1 | active: 35.5 µM | 
18 | Cc1ccc(C)c(NC(=O)CSc2nnc(Cc3cccn3C)n2-c2ccc(F)cc2)c1 | inconclusive: 31.6 µM [inhibitor, partial curve, poor fit] | 
19 | C=C1c2cc(OC)ccc2NC(=O)N1CC | active: 31.6 µM | 
20 | CC(=O)C1=C(O)C(=O)N(Cc2ccccc2)C1c1cccc([N+](=O)[O-])c1 (centres undefined) | inconclusive: 89.1 µM [inhibitor, partial curve, poor fit] | 
21 | Cc1cccc(NC(=O)CSc2nc3ccccc3nc2N2CCC(C)CC2)c1 | inactive | 
22 | Cn1c(SCC(=O)NC(C)(C)C)nnc1-c1cccc(NC(=O)c2ccccc2F)c1 | inconclusive: 2.24 µM [inhibitor, partial curve, poor fit] | 
23 | CCOc1ccc2nc(SCC(=O)c3ccc(C)s3)sc2c1 | inconclusive: 89.1 µM [inhibitor, single point] | 

Row | SMILES | Potency | activity, negative = inhibition
24 | Cc1ccccc1CSc1nnc(-c2cccnc2)n1N |  | inactive: 3.07% [at 12.7 µM]
25 | Cc1nnc(SCC(=O)Nc2ncc(Cl)cc2Cl)n1Cc1ccccc1 |  | inconclusive: -56.3% [inhibitor] [at 102 µM]
26 | COc1cc2c(cc1OC)C1O[C@](CCCCN3C(=O)c4ccccc4C3=O)(C2)Oc2c1c(=O)oc1ccc(F)cc21 | inconclusive: 1.26 µM [inhibitor, single point] | 
27 | CN(Cc1ccccc1)C(=S)NC(=O)c1ccccc1 | active: 50.1 µM | 
28 | Cc1ccc(NC(=O)CSc2nc3ccc(Br)cc3[nH]2)c(C)c1 | active: 8.91 µM | 
29 | CCOc1ccc(/C=C/C(=O)OCC(=O)NCCc2ccc(OCC)c(OCC)c2)cc1OC | inactive | 
30 | O=C(Nc1ccc(OC(F)(F)F)cc1)C1CCN(S(=O)(=O)c2ccc3[nH]c(=O)ccc3c2)CC1 | inactive | 
31 | COc1ccc(C2SCC(C(=O)O)N2C(C)=O)cc1OC (centres undefined) | inconclusive: 89.1 µM [inhibitor, single point] | 
32 | Cc1cc(OCCOCCNC(C)C)cc(C)c1Cl | inconclusive: 10 µM [inhibitor, partial curve, poor fit] | 
33 | Cc1cc2nc(N3CCN(C(=O)c4ccco4)CC3)sc2cc1C | inconclusive: 89.1 µM [inhibitor, partial curve, poor fit] | 
34 | COc1ccc(OC)c(/C=C/C(=O)N2C(=O)c3cccc(N)c3C2=O)c1 | inactive | 
35 | O=C(COC(=O)[C@H](Cc1c[nH]c2ccccc12)NC(=O)c1ccc(Cl)cc1)Nc1ccc2c(c1)OCO2 | inconclusive: 89.1 µM [inhibitor, single point] | 
36 | COC(=O)c1ccccc1NC(=S)NC(=O)COc1ccc(C(C)C)cc1 | inconclusive: 28.2 µM [inhibitor, single point] | 
37 | Cn1cc(C(=O)N/N=C/C2=C(N3CCOCC3)C(=C\c3ccccc3)/CC2)ccc1=O | inactive | 
38 | COc1cccc2c1C(=O)c1c(O)c3c(c(O)c1C2=O)C[C@@](O)(C(=O)CO)C[C@@H]3O[C@H]1C[C@H](N)[C@H](O)[C@H](C)O1 | active: 22.4 µM | 
39 | Cc1c(C(=O)O)oc2ccc(S(=O)(=O)NC3CCCCCCC3)cc12 | inconclusive: 79.4 µM [inhibitor, single point] | 
40 | COc1ccc(C)cc1NS(=O)(=O)c1cn(C)c(=O)n(C)c1=O | inconclusive: 100 µM [inhibitor, single point] | 
41 | O=C(Cn1c(=O)c2cccn2c2cccnc21)N1CCN(c2ccc(Cl)cc2)CC1 | inconclusive: 39.8 µM [inhibitor, full curve] | 
42 | CCN(c1ccc(NC(=O)COC(=O)c2ccc(C)s2)cc1)C(C)C | active: 10 µM | 
43 | COc1cc(C2Nn3c(nnc3-c3ccccc3OC)S2)ccc1O (centres undefined) | active: 0.631 µM | 
44 | CC(=O)N(C)c1ccc(NCc2cc(=O)oc3cc(C)c(O)cc23)cc1 | inactive | 
45 | Cc1cccc(N2CCN(S(=O)(=O)c3c(C)[nH]c(C)c3C(=O)N3CCCCC3)CC2)c1C | inactive | 
46 | CCN(CC)C(=O)C1=C(C)NC(=S)NC1c1cccs1 (centres undefined) | inconclusive: 56.2 µM [inhibitor, partial curve, poor fit] | 

Row | SMILES | Potency | activity, negative = inhibition
47 | COc1ccc(N2CCN(C(c3cc4ccc(C)cc4[nH]c3=O)c3nnnn3C3CCCC3)CC2)cc1 (centres undefined) | inconclusive: 100 µM [inhibitor, single point] | 
48 | CCOc1ccc(CNC(=O)c2ccc3c(c2)sc2nc(-c4ccccc4)cn23)cc1 | inactive | 
49 | Cn1cnc(S(=O)(=O)N2CCC(C(=O)Nc3ccc(F)cc3F)CC2)c1 | inactive | 
50 | CCc1ccc(OCCOCC(O)CN(CCO)CCO)cc1 (centres undefined) | inactive | 
51 | CCCCC(=O)Nc1ccc(C(=O)NCC(=O)OC)cc1 | inconclusive: 22.4 µM [inhibitor, partial curve] | 
52 | OC(COc1cccc2ccccc12)CN1CCN(c2ccccn2)CC1 (centres undefined) | active: 50.1 µM | 
53 | CSc1nn2cc(CCN3CCOCC3)c(-c3ccc(F)cc3)nc2c1C#N | inactive | 
54 | COc1ccc(C2C(C(=O)c3ccccc3)N3c4ccccc4C=CC3C2[N+](=O)[O-])cc1 (centres undefined) | active: 35.5 µM | 
55 | c1coc(-c2ccnc(-n3cccc3)n2)c1 | inconclusive: 89.1 µM [inhibitor, single point] | 
56 | CCC(Sc1ncccc1C(=O)O)C(=O)N1CCCC1 (centres undefined) | inconclusive: 28.2 µM [inhibitor, single point] | 
57 | COc1cc(SC)ccc1C(=O)NNC(=O)c1cc(C)oc1C | inconclusive: 50.1 µM [inhibitor, partial curve, poor fit] | 
58 | CCNS(=O)(=O)c1ccc(C(=O)OCc2cc(=O)oc3cc(OC)ccc23)cc1 | inconclusive: 89.1 µM [inhibitor, single point] | 
59 | N#CSCC(=O)c1cccc2ccccc12 | inconclusive: 39.8 µM [inhibitor, single point] | 
60 | CCCCN(CC)Cc1c(O)ccc2c(-c3ccccc3)cc(=O)oc12 | inconclusive: 89.1 µM [inhibitor, single point] | 
61 | Cc1sc2ncnc(N3CCC(C(=O)Nc4nnc(SCc5ccccc5F)s4)CC3)c2c1C | inconclusive: 70.8 µM [inhibitor, partial curve, poor fit] | 
62 | COC(=O)C1=C(C)NC(C)=C(C(=O)OC)C1c1ccc(N(C)C)cc1 | inconclusive: 3.16 µM [inhibitor, single point] | 
63 | CC(=O)OCC(=O)Nc1ccc(SC(F)F)cc1 | inconclusive: 70.8 µM [inhibitor, partial curve, poor fit] | 
64 | O=C(Cn1c(=O)n(-c2ccccc2)c(=O)c2ccc(C(=O)NCc3ccc4c(c3)OCO4)cc21)Nc1ccc(F)cc1 | inconclusive: 10 µM [inhibitor, partial curve, poor fit] | 
65 | COC(=O)c1ccc(CSc2nc3c([nH]c4ccccc43)c(=O)n2-c2ccc(F)cc2)o1 | inactive | 
66 | COC(=O)\C(C(C)=O)=C(/C=C/C=C/N(C)C)N(C)C | inconclusive: 15.8 µM [inhibitor, partial curve, poor fit] | 
67 | NC(N)=NC(N)=Nc1ccc(SC(F)(F)F)cc1 | inconclusive: 89.1 µM [inhibitor, partial curve, poor fit] | 
68 | COc1cc(OC)cc(C(=O)NCC(=O)OCc2csc(-c3ccccc3)n2)c1 | inconclusive: 22.4 µM [inhibitor, single point] | 
69 | COc1ccc(NCc2cc3cc4c(cc3n(CC(=O)Nc3cccc(F)c3)c2=O)OCO4)cc1 | inconclusive: 3.16 µM [inhibitor, partial curve, poor fit] | 

From PubChem BioAssay AID504332 (National Center for Advancing Translational Sciences (NCATS), 2011)
